Reference: publication PMC8633501
These are yes or no findings as the source states them, for the method shown. In cells and extracts the contact can be indirect. Some binding calls cover weakened binding; strength is not graded here. Sequences can lack the tags named with a protein.

Key:
[1] = biological target: T1, ROC8 BiFC fusions (ROC8-nYFP and ROC8-cYFP) (rice (Oryza sativa L.)) (UniProt Q69T58); assay: split reporter; competition: nYFP and cYFP fusions of one protein co-expressed in tobacco leaves with the other protein as a third, or with a truncated control (P6, X7)
T1 sequence: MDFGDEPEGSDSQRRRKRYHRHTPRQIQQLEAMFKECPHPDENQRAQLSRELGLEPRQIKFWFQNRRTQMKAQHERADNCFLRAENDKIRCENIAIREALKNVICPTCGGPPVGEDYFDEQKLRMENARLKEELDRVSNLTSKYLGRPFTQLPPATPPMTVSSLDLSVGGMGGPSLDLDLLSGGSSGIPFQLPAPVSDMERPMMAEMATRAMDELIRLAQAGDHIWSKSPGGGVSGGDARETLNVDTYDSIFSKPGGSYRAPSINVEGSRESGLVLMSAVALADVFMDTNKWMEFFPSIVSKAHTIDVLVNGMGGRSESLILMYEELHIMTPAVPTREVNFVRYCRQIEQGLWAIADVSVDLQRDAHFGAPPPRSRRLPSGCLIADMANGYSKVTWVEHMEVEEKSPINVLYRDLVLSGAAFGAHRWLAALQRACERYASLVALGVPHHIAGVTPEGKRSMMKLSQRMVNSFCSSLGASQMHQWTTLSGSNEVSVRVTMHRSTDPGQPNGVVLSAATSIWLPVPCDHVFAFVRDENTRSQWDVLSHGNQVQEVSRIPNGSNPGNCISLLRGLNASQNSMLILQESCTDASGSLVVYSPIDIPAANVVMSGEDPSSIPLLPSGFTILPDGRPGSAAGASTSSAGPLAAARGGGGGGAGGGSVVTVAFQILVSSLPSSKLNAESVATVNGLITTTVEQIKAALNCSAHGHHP

[2] = biological target: T2, ROC5 BiFC fusions (ROC5-nYFP and ROC5-cYFP) (rice (Oryza sativa L.)) (UniProt Q6EPF0); assay: split reporter; nYFP and cYFP fusions co-infiltrated by Agrobacterium into N. benthamiana leaves with p19 and the nuclear marker D53-mCherry; confocal microscopy 48 to 72 h after infiltration
T2 sequence: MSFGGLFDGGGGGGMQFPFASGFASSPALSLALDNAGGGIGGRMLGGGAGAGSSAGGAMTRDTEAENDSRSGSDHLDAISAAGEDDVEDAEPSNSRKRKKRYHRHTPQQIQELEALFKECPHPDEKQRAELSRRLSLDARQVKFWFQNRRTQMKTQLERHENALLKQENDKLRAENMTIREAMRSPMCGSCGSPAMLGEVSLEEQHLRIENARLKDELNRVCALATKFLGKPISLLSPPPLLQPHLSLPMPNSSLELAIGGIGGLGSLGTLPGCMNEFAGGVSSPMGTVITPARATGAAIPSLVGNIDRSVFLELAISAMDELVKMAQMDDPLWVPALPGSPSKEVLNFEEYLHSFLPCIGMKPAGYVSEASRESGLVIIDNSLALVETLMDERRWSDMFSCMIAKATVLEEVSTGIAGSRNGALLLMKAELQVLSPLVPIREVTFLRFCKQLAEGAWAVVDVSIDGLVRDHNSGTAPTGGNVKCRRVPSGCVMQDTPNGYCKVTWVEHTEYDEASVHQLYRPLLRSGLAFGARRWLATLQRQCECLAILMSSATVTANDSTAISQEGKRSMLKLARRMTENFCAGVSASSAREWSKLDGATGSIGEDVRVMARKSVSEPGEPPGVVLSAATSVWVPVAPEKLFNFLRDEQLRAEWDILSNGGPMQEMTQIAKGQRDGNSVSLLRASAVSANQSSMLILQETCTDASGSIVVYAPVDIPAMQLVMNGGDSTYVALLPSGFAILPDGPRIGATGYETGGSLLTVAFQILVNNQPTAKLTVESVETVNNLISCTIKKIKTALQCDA

[3] = biological target: T1, ROC8 BiFC fusions (ROC8-nYFP and ROC8-cYFP) (rice (Oryza sativa L.)); assay: as above

binding [1]: binds
binding [2]: binds
binding [3]: binds
B1: ROC8 BiFC fusions (ROC8-nYFP and ROC8-cYFP) (protein, UniProt Q69T58 1-710)
chain: MDFGDEPEGSDSQRRRKRYHRHTPRQIQQLEAMFKECPHPDENQRAQLSRELGLEPRQIKFWFQNRRTQMKAQHERADNCFLRAENDKIRCENIAIREALKNVICPTCGGPPVGEDYFDEQKLRMENARLKEELDRVSNLTSKYLGRPFTQLPPATPPMTVSSLDLSVGGMGGPSLDLDLLSGGSSGIPFQLPAPVSDMERPMMAEMATRAMDELIRLAQAGDHIWSKSPGGGVSGGDARETLNVDTYDSIFSKPGGSYRAPSINVEGSRESGLVLMSAVALADVFMDTNKWMEFFPSIVSKAHTIDVLVNGMGGRSESLILMYEELHIMTPAVPTREVNFVRYCRQIEQGLWAIADVSVDLQRDAHFGAPPPRSRRLPSGCLIADMANGYSKVTWVEHMEVEEKSPINVLYRDLVLSGAAFGAHRWLAALQRACERYASLVALGVPHHIAGVTPEGKRSMMKLSQRMVNSFCSSLGASQMHQWTTLSGSNEVSVRVTMHRSTDPGQPNGVVLSAATSIWLPVPCDHVFAFVRDENTRSQWDVLSHGNQVQEVSRIPNGSNPGNCISLLRGLNASQNSMLILQESCTDASGSLVVYSPIDIPAANVVMSGEDPSSIPLLPSGFTILPDGRPGSAAGASTSSAGPLAAARGGGGGGAGGGSVVTVAFQILVSSLPSSKLNAESVATVNGLITTTVEQIKAALNCSAHGHHP
